To fix the notation:
B1: TPR 5TU (parent)
chain: GGAUCUUCUCGAUCUAACAAAAAAGACAAAUCUGCCACAAAGCUUGAGAGCAUCUUCGGAUGCAGAGGCGGCAGCCUUCGGUGGCGCGAUAGCGCCAACGUUCUCAACUAUGACACGCAAAACGCGUGCUCCGUUGAAUGGAGUUUAUCAUG

The source of these data is the RNAGym collection of RNA variant scans (doi:10.1073/pnas.2313332121).

This sample is rich in variants without activity.

Variants of B1 are the subject of this data set. Nature of the data set: polymerase ribozyme fitness, log enrichment relative to wild type (log ratio); higher = more active; in vitro selection for triplet polymerase activity. An outline of the steps: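 Libraries of mutants in each subunit of a heterodimeric triplet polymerase ribozyme were generated by PCR and transcribed. In triplicate, each went through one in vitro selection round: annealing with biotinylated primer, partner subunit and triplets; frozen incubation at −7 °C; gel excision of extended constructs; streptavidin-bead capture; RT-PCR. Fitness, taken from Illumina sequencing of input and output libraries, is the logarithm of a genotype's enrichment over wild-type enrichment, averaged across replicates with inverse-variance weights. The logarithm is base 2, and genotypes needed ≥10 input reads and ≥1 read per output to be kept.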
On to C32A A49C G67C A73C G141C, for which the “polymerase ribozyme fitness (log ratio)” value is at most -4.2.
Next, U31A C32G U33G G42A C43A A66C G81C C96A A97U U111C A122U U135C U144C G152A: at most -4.2; U31A G59A A73U U78C C79G C87U C93U U145G: at most -4.2.
Next, C32G C79U G86U A89C: at most -4.2; C32A C51U U53C C57A U109A: at most -4.2.
The figure for C32U A41C G86U C93U is at most -4.2; for C32G G50A A106U U145A it is at most -4.2; for C32G G80C C85A A107U U134A G140U it is at most -4.2.
Take U31C A37U A106U A122U: the “polymerase ribozyme fitness (log ratio)” value is at most -4.2.
For U31G U33G C43U G58A A97U, the “polymerase ribozyme fitness (log ratio)” value was at most -4.2.
Next, C32G U44A A52G A73U C79U C93A C99G C103U C125A: at most -4.2.
Next, U31C A40C G81U C129G U135A A142C: at most -4.2.
The figure for C32G G84U is at most -4.2; for U31A C54A U55A C87A it is at most -4.2; for U31G U44A C93U C95U C114U it is at most -4.2.
In the case of C32A A40G U53G G136U A150C, the “polymerase ribozyme fitness (log ratio)” value is at most -4.2.
The figure for C32U A73G C95G C96U U101G C103A A150U is at most -4.2.
The figure for A30U C93U A115G is at most -4.2.
For the variant A30U A66U C75A C87G A91G G133C G136A, the “polymerase ribozyme fitness (log ratio)” value was at most -4.2.
Next, A30U A60C G71A G83U C93U A115U: at most -4.2.
U31G A66U C95U: the “polymerase ribozyme fitness (log ratio)” value is at most -4.2.
A30U U61A G152A: the “polymerase ribozyme fitness (log ratio)” value is at most -4.2.
Next, U31G G65C C79G C85U C131G: at most -4.2.
The figure for A30U U31A U44A C93U A150U is at most -4.2.
For the variant C32A C57U C79G C85G C96A C123U, the “polymerase ribozyme fitness (log ratio)” value was at most -4.2.
The figure for U31G C32G C57G U102A A121C is at most -4.2; for U31G G34C G50A A73C C95A C96A A106G A120G U144G it is at most -4.2.
Next, C32G A41G C43G U56A G58A C125A G143C: at most -4.2.
The figure for C32G A40C A41C G81A is at most -4.2; for U31A G81C C93A C96G C118U U127C U145C it is at most -4.2.
For the variant U31G C32G A39G A52C C54U C131G G141C, the “polymerase ribozyme fitness (log ratio)” value is at most -4.2.
Take U31G G34U U61A C95G C123U: the “polymerase ribozyme fitness (log ratio)” value was at most -4.2.
The figure for U31A A49C A89G C95G is at most -4.2; for A30U C85A A106G U130G C132A U145G U148C it is at most -4.2.
The figure for C32G G71A C87A is at most -4.2.
Next, C32A A40C C54A A66C C95U A120U C125U G133C A142U: at most -4.2.
In the case of U31G U45A G58A G88A C99A U144A, the “polymerase ribozyme fitness (log ratio)” value was at most -4.2.
On to C32G A40U G86A C93G C96G C116A, for which the “polymerase ribozyme fitness (log ratio)” value is at most -4.2.
The figure for A30U A52C C72U A89U A97U C132G A147U is at most -4.2.
Take C32G G70C U82C: the “polymerase ribozyme fitness (log ratio)” value was at most -4.2.
Next, U31A U56A G70A A110C U151A: at most -4.2.
The figure for U31G G65U A97U A98C is at most -4.2.
The figure for A30U U53G C54G is at most -4.2; for C32A C99U G140A it is at most -4.2.
On to C32A A41G G50C U53A C63U A66C G88A A137U, for which the “polymerase ribozyme fitness (log ratio)” value was at most -4.2.
The figure for U31A A47G G59C G71A C116A U139A is at most -4.2.
Next, U31C C93G C96A G133C: at most -4.2; C32G G94A G143C: at most -4.2.
On to U31G C35A A47G G62U A142G U146G, for which the “polymerase ribozyme fitness (log ratio)” value was at most -4.2.
As for A30U G86C, the “polymerase ribozyme fitness (log ratio)” value is at most -4.2.
The figure for A30U A41U U61A G71C A121C A122C G124U G136C is at most -4.2; for C32G U33A U78A A97U C108G it is at most -4.2; for U31G A40C C57U A120U G136C A138U it is at most -4.2.
Next, A30U C54U G58C G71C A113C C116A A120G: at most -4.2.
The figure for U31A C79U C105U A119G A137C is at most -4.2.
With C32G C103G, the “polymerase ribozyme fitness (log ratio)” value was at most -4.2.
With A30U C69A, the “polymerase ribozyme fitness (log ratio)” value was at most -4.2.
Next, A30U U33G G42A U90A C99A U135A U146C: at most -4.2; C32A G84C C85G C96G G136A: at most -4.2; U31C C103A C108U: at most -4.2.
The figure for C32A A47U C99U U102G C125U G143U is at most -4.2; for U31C C38U A47U C93G G143C U146C it is at most -4.2; for A30U A89U C93U A122C it is at most -4.2.
On to A30U C75G C85A A120G U145C, for which the “polymerase ribozyme fitness (log ratio)” value was at most -4.2.
Next, A30U A60U G88U: at most -4.2.
Next, C32U C43G A47U A60C C76G: at most -4.2; U31C U33A A98G: at most -4.2.
Next, A30U U55G C96G A115C: at most -4.2; A30U A47C U56A C76G A106U U109A A142C: at most -4.2.
Regarding A30U C103U G140A, the “polymerase ribozyme fitness (log ratio)” value is at most -4.2.
The figure for U31A C79G A110G is at most -4.2.
Next, C32G C36U A41C U61A C87U A97C U102G C125G: at most -4.2; C32A C57U G59A G84A C116G U135A A147U: at most -4.2.
Next, U31G C36U A52C C76U A91U C116A: at most -4.2; U31C C32A A41G U55G C75G U78C C95A G126C: at most -4.2; U31G U45A U101G U102C A142C: at most -4.2.
For the variant A30U U55A C103A G117A, the “polymerase ribozyme fitness (log ratio)” value is at most -4.2.
Next, U31G C87G C105A: at most -4.2; C32A A60G C114U A119U A142U: at most -4.2.
The figure for C32U G68U C125A is at most -4.2.
The figure for A30U U55A U56A G86U G92A U146C is at most -4.2; for U31G G42C G58U C75A U102G it is at most -4.2; for U31C G68C G92C C95G A98U C116A A137U it is at most -4.2.
